Hit rate of the full screen: of about 310,000 compounds, about 14,000 (4.5%) showed an effect of 50% or more. The effect is printed as a negative number. The list shows a part of the results.
target: human ether-à-go-go-related gene (hERG) potassium channel (human, UniProt Q12809); assay: primary screen, population patch clamp on CHO cells stably expressing hERG
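Also: peak tail current of the secondary pulse compared with the same well before compound.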

Sequence of human ether-à-go-go-related gene (hERG) potassium channel (Q12809 whole entry, looked up): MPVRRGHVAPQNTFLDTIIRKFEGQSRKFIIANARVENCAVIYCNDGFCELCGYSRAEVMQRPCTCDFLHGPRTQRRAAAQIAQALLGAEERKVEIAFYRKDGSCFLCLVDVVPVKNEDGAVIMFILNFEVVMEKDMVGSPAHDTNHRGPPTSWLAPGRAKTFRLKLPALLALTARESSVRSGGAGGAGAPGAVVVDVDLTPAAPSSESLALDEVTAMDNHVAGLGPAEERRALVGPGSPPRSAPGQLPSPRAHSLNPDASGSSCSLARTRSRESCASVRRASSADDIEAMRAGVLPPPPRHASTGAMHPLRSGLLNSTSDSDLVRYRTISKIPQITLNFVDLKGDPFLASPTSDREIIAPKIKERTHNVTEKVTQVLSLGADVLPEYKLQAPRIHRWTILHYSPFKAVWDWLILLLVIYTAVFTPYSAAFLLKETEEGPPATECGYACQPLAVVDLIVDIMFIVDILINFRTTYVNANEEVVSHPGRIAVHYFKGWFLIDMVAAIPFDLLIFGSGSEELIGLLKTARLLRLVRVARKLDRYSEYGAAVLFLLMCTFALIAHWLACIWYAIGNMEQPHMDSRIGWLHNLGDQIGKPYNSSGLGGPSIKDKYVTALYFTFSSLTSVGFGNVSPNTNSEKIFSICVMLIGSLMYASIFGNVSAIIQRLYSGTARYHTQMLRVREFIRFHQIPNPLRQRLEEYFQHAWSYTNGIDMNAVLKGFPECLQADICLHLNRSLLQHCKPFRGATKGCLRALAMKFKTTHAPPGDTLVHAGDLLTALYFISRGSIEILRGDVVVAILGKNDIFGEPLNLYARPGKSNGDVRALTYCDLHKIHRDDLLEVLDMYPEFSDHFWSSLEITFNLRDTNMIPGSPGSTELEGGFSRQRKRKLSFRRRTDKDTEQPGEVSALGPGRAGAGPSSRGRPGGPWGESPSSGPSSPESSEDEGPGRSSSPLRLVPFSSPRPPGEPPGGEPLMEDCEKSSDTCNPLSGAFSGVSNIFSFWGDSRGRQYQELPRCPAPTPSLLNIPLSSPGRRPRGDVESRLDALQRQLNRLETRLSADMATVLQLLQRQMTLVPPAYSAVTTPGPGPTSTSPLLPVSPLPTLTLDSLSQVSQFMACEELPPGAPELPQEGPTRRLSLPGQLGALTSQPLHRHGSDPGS

Row | Structure (SMILES) | hERG current change (%, negative = inhibition) at 10uM [%]
1 | COc1ccc(-n2cc(-c3ccc(Br)cc3)[nH]c2=S)cc1 | 18
2 | CCn1c(SCC(=O)NCC2CCCO2)nc2c(c1=O)SCC2 (centres unmarked) | 20
3 | NC(=O)CCN(Cc1ccccc1)S(=O)(=O)c1ccccc1 | -9.98
4 | CC(C)(C)c1ccc(-c2nn(CCC#N)cc2/C=N/O)cc1 | 6.96
5 | COc1ccc(NC(=O)c2ccc(OCC3CCCO3)cc2)cc1OC (centres unmarked) | 5.92
6 | Cc1ccc(NC(=O)CSc2ccc(-c3ccccn3)nn2)cc1 | 2
7 | CC/C(=N\NC(=O)c1c[nH]c2ccccc12)c1cccs1 | 10.9
8 | N#Cc1cc2c(nc1SCC(=O)O)CCCCC2 | 3.05
9 | O=C(CN1C(=O)NC2(CCCc3ccccc32)C1=O)N1CCCCC1 (centres unmarked) | 22.2
10 | CCOC(=O)N1CCN(C(=O)c2cccn3c(=O)c4c5c(sc4nc23)CCCC5)CC1 | -44.7
11 | COc1cc(OC)cc(C(=O)Nc2ccc(S(=O)(=O)Nc3cnc4ccccc4n3)cc2)c1 | 3.23
12 | CCc1ccc(NC(=O)C2CCCN(S(=O)(=O)c3c(C)[nH]c(=O)[nH]c3=O)C2)cc1 (centres unmarked) | 19.4
13 | N/C(=N/S(=O)(=O)c1ccccc1)c1cccc([N+](=O)[O-])c1 | -15.8
14 | CN1CCC2(CC1)CC(NC=O)c1ccccc1O2 (centres unmarked) | 25.9
15 | C[C@H](NC(=O)[C@H]1N2C(=O)c3ccccc3C2SC1(C)C)C(=O)NCc1ccncc1 (some centres unmarked) | 33.8
16 | CN1C2CCC1CC(OC(=O)c1ccc(Cl)cc1)C2.Cl (centres unmarked) | -48.9
17 | CCN(CC)S(=O)(=O)c1ccc(C(=O)OCC(=O)NCc2ccco2)cc1 | -28.5
18 | OCC1(Cc2ccccc2)CCCN(Cc2ccn[nH]2)C1 (centres unmarked) | -11.8
19 | O=C(N/N=C/c1cccnc1)c1cc(-c2cccs2)nc2ccccc12 | -20

Row | Structure (SMILES) | hERG current change (%, negative = inhibition) at 10uM [%]
20 | COC(=O)c1cnn(-c2ccccc2)c1C(OC)OC | 6.12
21 | CCOc1nnc(C)c2c(C)n(-c3cccc(OC)c3)nc12 | 3.25
22 | CCSc1nnc(NC(=O)COc2ccccc2)s1 | 4.88
23 | N#CC1(c2ccccc2)CCN(C2CC(=O)N(c3cccc(F)c3)C2=O)CC1 (centres unmarked) | 17.4
24 | O=C(Cn1c(=O)oc2ccccc21)Nc1ccc(Cl)cc1Cl | 9.56
25 | COc1ccc(C2NC(=O)NC(C)=C2C(=O)OCc2ccccc2)cc1 (centres unmarked) | 2.79
26 | O=c1[nH]c(CN(CCc2ccccc2)S(=O)(=O)c2ccc(Cl)cc2)nc2ccccc12 | -1.14
27 | Cc1nc2ccccc2n1CC(=O)NC1CCCC1 | 14
28 | COc1cc(/C(O)=C(\C#N)c2nc3ccccc3[nH]2)cc(OC)c1OC | 17.7
29 | Cc1cccc(N(C)S(=O)(=O)c2ccc3[nH]cc(C(=O)N4CCOCC4)c(=O)c3c2)c1 | 6.19
30 | CCO[C@H]1OC(C(=O)N2CCN(C)CC2)=C[C@@H](c2ccc(C(F)(F)F)cc2)[C@@H]1CCCO | 8.75
31 | COC(=O)c1ccc(C(=O)N(CCN(C)C)c2nc3c(Cl)cccc3s2)cc1.Cl | -54.9
32 | Cc1ccc(C)c(S(=O)(=O)N/N=C/c2ccc(F)cc2)c1 | -9.43
33 | CCNC(=S)NNC(=O)c1ccc(OC(F)F)cc1 | 10.8
34 | CC(=O)Oc1ccc(C2C3=C(CC(C)(C)CC3=O)Nc3cc4c(cc32)OCCO4)cc1 (centres unmarked) | 18.5
35 | CCOc1cc(NC(=O)c2ccco2)c(OCC)cc1NC(=O)Cc1ccc(OC)c(OC)c1 | -5.23
36 | CCOc1ccc(NC(=O)CCN2CCN(S(=O)(=O)c3ccc(OC)cc3)CC2)cc1 | -28.8
37 | CC(C(=O)NC1CCCC1)N1CCN(Cc2ccccc2)CC1 (centres unmarked) | 28.6
38 | COc1cc(C(=O)NCCC2=CCCCC2)cc(OC)c1OC | -5.65

Row | Structure (SMILES) | hERG current change (%, negative = inhibition) at 10uM [%]
39 | CCCCCCCCCCCCCCCC[N+](C)(C)C.O.[OH-] | -0.893
40 | NC(=O)/C=C\c1cn(-c2ccccc2)nc1-c1ccc2c(c1)OCCO2 | -1.78
41 | COc1ccccc1OCC(=O)Nc1ccc(S(=O)(=O)Nc2nccs2)cc1 | 15.4
42 | O=[N+]([O-])c1ccccc1CN1CCN(c2ncccn2)CC1 | 5.81
43 | Cc1c(C(=O)C(=O)N2c3ccc(F)cc3CCC2C)c2ccccc2n1C (centres unmarked) | -27.8
44 | CC(C)N(C(=O)Cn1c(=O)oc2ccccc21)c1ccccc1 | 6.95
45 | COc1ccccc1NC(=O)Nc1nnc(C(C)c2ccccc2)s1 (centres unmarked) | 6.01
46 | O=C(Nc1ccc(NC(=O)c2cc3ccccc3o2)cc1)c1ccc2c(c1)OCCO2 | 13.2
47 | O=C1CCc2cc(S(=O)(=O)N3CCCC3C(=O)NC3CCCCCCC3)ccc2N1 (centres unmarked) | -50.3
48 | COCCCNC(=S)N(CCCO)Cc1cc2cc3c(cc2[nH]c1=O)OCCO3 | 13.6
49 | N#Cc1cc(Oc2cccnc2)c(Oc2cccnc2)cc1C#N | -4.26
50 | Cc1ccc2[nH]c(=O)c3cc(C(=O)N(C)c4ccc(C)c(C)c4)sc3c2c1 | -7.21
51 | COc1ccc(/C(O)=C/C(=O)C(=O)NNC(=O)C(O)(c2ccccc2)c2ccccc2)cc1 | -1.19
52 | Cc1ccc2nc(N(CCN(C)C)C(=O)C3=COCCO3)sc2c1.Cl | -44.1
53 | O=C(O)c1cccc(NS(=O)(=O)c2cccc3cccnc23)c1 | 5.51
54 | NS(=O)(=O)c1cc2c(cc1Cl)NC(C1C[C@H]3C=C[C@@H]1C3)NS2(=O)=O (some centres unmarked) | 18.9
55 | NC(=O)c1ccccc1NC(=O)CN1CCN(Cc2ccc(Cl)cc2Cl)CC1 | -76.1
56 | S=c1[nH]nc(-c2ccncc2)n1/N=C/C=C/c1ccccc1 | 8.71
